Source: publication PMC7819943, “Rice protein-binding microarrays: a tool to detect cis-acting elements near promoter regions in rice”
This is one part of the list.

What follows are sequences tested against T1, OsWOX13 (Oryza sativa, UniProt Q5QMM3 1-267) (assay: protein-binding microarray (RPBM); PBS, 2% BSA, 51.3 ng/ul salmon testes DNA, 50 uM zinc acetate, 200 nM TF, 25 C, 1 h; high values mean tight binding). Conditions: protein: recombinant; tags: N-terminal polyhistidine and DsRed monomer fusion (pET32a); label: CyDye5-dUTP incorporated in the synthesized complementary strand; 3' TTTTT single-stranded linker to array surface; dsDNA, one strand shown.
T1 sequence: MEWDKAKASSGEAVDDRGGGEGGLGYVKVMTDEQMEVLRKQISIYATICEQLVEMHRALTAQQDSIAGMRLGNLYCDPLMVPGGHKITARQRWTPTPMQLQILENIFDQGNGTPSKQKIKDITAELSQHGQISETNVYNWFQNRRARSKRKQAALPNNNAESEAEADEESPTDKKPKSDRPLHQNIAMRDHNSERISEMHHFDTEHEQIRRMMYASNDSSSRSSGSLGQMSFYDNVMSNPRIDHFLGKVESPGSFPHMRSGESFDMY
Procedure, shortened: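 Binding signal here means per-feature fluorescence intensity in arbitrary units. The values were read on an Axon 4000B scanner after a custom Agilent array, double-stranded by primer extension with Cy5-dUTP, was incubated with 200 nM protein at 25 °C for 1 h in PBS with 2% BSA, salmon testes DNA and 50 µM zinc acetate, then washed. The proteins were transcription factors with an N-terminal polyhistidine tag and DsRed, expressed in E. coli BL21-CodonPlus and purified on Ni–NTA.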
In the case of “GCAATCAATCCATCACACACAAACACAAACAAACGCACAGCGGAGTCACCTAGTGCAG”, the binding signal is reported as 15100 fluorescence intensity (a.u.).
In the case of “TTTAATTAGTCTCAATAGATTCGTCTCGCAAATTAGTTCACGGAGTCACCTAGTGCAG”, the binding signal is reported as 19800 fluorescence intensity (a.u.).
With “TTTAATATTTTACCAATTACCATTGGTGCGCTTGTCAGTTCGGAGTCACCTAGTGCAG” the binding signal was 6120 fluorescence intensity (a.u.).
“TGACAAAATTGCAACGGAAATTTCTTGGATTTAAATGCAGCGGAGTCACCTAGTGCAG” was tested, and the binding signal was 5780 fluorescence intensity (a.u.).
In the case of “AGTATGTATTAATTAAGCAAACACTCTAGCTTATTTTCTACGGAGTCACCTAGTGCAG”, the binding signal is reported as 3340 fluorescence intensity (a.u.).
In the case of “GGATACTAATTAGATTGGAAGTATATTTACACTCAGTCACCGGAGTCACCTAGTGCAG”, the binding signal is reported as 41600 fluorescence intensity (a.u.).
With “AATCCAAATTACTACTCCCTCCGTATTTTAATATATGACGCGGAGTCACCTAGTGCAG” the binding signal was 3270 fluorescence intensity (a.u.).
“TTGTAAATTTATTTAATTATACACATATACCTACTTAAAACGGAGTCACCTAGTGCAG” was tested, and the binding signal was 25100 fluorescence intensity (a.u.).
“CCTAATTAATCACTCCTTGGTATGCTAAATGCTGTCCTAACGGAGTCACCTAGTGCAG” was tested, and the binding signal was 37100 fluorescence intensity (a.u.).
With “ATATTACCAAAATTTTGACAGGATTTTATATGTATTTATCCGGAGTCACCTAGTGCAG” the binding signal was 6380 fluorescence intensity (a.u.).
With “TATATATATATATATCCGATCCATTTTCATCCCCACTTAACGGAGTCACCTAGTGCAG” the binding signal was 3620 fluorescence intensity (a.u.).
With “TGTAATTATATTTCTATTATATACTGTAGTTGCATTTGAACGGAGTCACCTAGTGCAG” the binding signal was 15500 fluorescence intensity (a.u.).
With “ACTTATTAAACCTGATTGGAGCCATGTTTGAAAACACAACCGGAGTCACCTAGTGCAG” the binding signal was 20800 fluorescence intensity (a.u.).
With “AGATTGTTAGATTATTATTAGCATTTTATAGTACAGCCAGCGGAGTCACCTAGTGCAG” the binding signal was 3590 fluorescence intensity (a.u.).
In the case of “AGGAATATATATAATTTACAAATAACTAAAATTTGATATTCGGAGTCACCTAGTGCAG”, the binding signal is reported as 4110 fluorescence intensity (a.u.).
In the case of “GCATACATATGATTGTTTTAGCAACTTGTTTGACGGCATGCGGAGTCACCTAGTGCAG”, the binding signal is reported as 13700 fluorescence intensity (a.u.).
For “GAGTAACTAATTAGTTACTCTTAAAACAATACCGTGCACCCGGAGTCACCTAGTGCAG”, the binding signal was 30100 fluorescence intensity (a.u.).
With “ATTAATTTAGCACTTTCTCCTGTACTGGCAATCTGGATTTCGGAGTCACCTAGTGCAG” the binding signal was 15100 fluorescence intensity (a.u.).
For “CCGAAACTTTTGAATTACCAAAATTATGGTAGAGAATCAACGGAGTCACCTAGTGCAG”, the binding signal was 6050 fluorescence intensity (a.u.).
In the case of “AAGCTGAAATTTGTTAGAGTAATAGTTGACACCATTACCACGGAGTCACCTAGTGCAG”, the binding signal is reported as 3160 fluorescence intensity (a.u.).
“GATGAATTAGTGTAGGATTAATTATATATTAGTTAAAGAACGGAGTCACCTAGTGCAG” was tested, and the binding signal was 4000 fluorescence intensity (a.u.).
In the case of “TTAAACTGATAAACTATATCACTATATTATCCAAGCAATCCGGAGTCACCTAGTGCAG”, the binding signal is reported as 15100 fluorescence intensity (a.u.).
For “GTCTAATTAGTCCATGATTAATTAGCCATAAGTTCTACAGCGGAGTCACCTAGTGCAG”, the binding signal was 53100 fluorescence intensity (a.u.).
In the case of “AAAATATATTAACTGGAATTCCAAGTGTATTACCTCATGTCGGAGTCACCTAGTGCAG”, the binding signal is reported as 7370 fluorescence intensity (a.u.).
With “CACTAATATGTGCTGTTATAAATGCTATTCCTTTGTTATTCGGAGTCACCTAGTGCAG” the binding signal was 3720 fluorescence intensity (a.u.).
“ATGATTGCACAATGTGCCAGAAAGCACTGCCTCATGCTCACGGAGTCACCTAGTGCAG” was tested, and the binding signal was 22500 fluorescence intensity (a.u.).
For “GGATTAATTTTAATCTTCGTTTCGAACAAAGAAATTAAGACGGAGTCACCTAGTGCAG”, the binding signal was 6550 fluorescence intensity (a.u.).
“CTAAGTGGTAAATTTGGGTGTAAACAGACACATATGCGAACGGAGTCACCTAGTGCAG” was tested, and the binding signal was 3470 fluorescence intensity (a.u.).
With “TATATATATATATATATATATATATATATATATAAACAAACGGAGTCACCTAGTGCAG” the binding signal was 16700 fluorescence intensity (a.u.).
“TCTTAATTACACGTGAGCTATATTTGTACTGCCTTGGTCCCGGAGTCACCTAGTGCAG” was tested, and the binding signal was 40600 fluorescence intensity (a.u.).
In the case of “TGTGTCATCTGCGGCCTAATTGCTTGATTCATCGATCTTACGGAGTCACCTAGTGCAG”, the binding signal is reported as 5830 fluorescence intensity (a.u.).
For “CTGTTAATTTAGGACACTGCAAGCCTCTGCATAGGCTTTCCGGAGTCACCTAGTGCAG”, the binding signal was 6340 fluorescence intensity (a.u.).
For “GGTGACGCTGTCAGTCAGTCAGTCAAAGTAATCAACCGCGCGGAGTCACCTAGTGCAG”, the binding signal was 7620 fluorescence intensity (a.u.).
In the case of “TCCTAATGAAGATTTGGAACTTCGAAGTGTAGCTGAATGGCGGAGTCACCTAGTGCAG”, the binding signal is reported as 6500 fluorescence intensity (a.u.).
With “ATAGATAGATTATATACAAAGGCAAAGCTTTTGTGCCCTTCGGAGTCACCTAGTGCAG” the binding signal was 25600 fluorescence intensity (a.u.).
“CTCCCCTAATTAAAAGTACAACAAATTGAAGGCATTTTGGCGGAGTCACCTAGTGCAG” was tested, and the binding signal was 16900 fluorescence intensity (a.u.).
In the case of “TGTCCATTGTTGATTAATGCTAAATACATATAACGGATTGCGGAGTCACCTAGTGCAG”, the binding signal is reported as 4490 fluorescence intensity (a.u.).
In the case of “CATATTGTTTTGATTCTACATAATTTATAAGTTGAATTTCCGGAGTCACCTAGTGCAG”, the binding signal is reported as 3600 fluorescence intensity (a.u.).
“TTAGACACTAATTTAGAGTATTAAATATAGACTACTTACACGGAGTCACCTAGTGCAG” was tested, and the binding signal was 6410 fluorescence intensity (a.u.).
For “TTGTTGCATTATCTGTCAAATTATCTAACAACATTATCTTCGGAGTCACCTAGTGCAG”, the binding signal was 3880 fluorescence intensity (a.u.).
For “TTTGATGAGGCAATACTAACTGCATCATCGCAACAGCTTACGGAGTCACCTAGTGCAG”, the binding signal was 5350 fluorescence intensity (a.u.).
“TGTAATTAAAATTCTATGATTGCAATTTGTAAACTTTAAACGGAGTCACCTAGTGCAG” was tested, and the binding signal was 5460 fluorescence intensity (a.u.).
